The values below come from paper PMC5892938.

This is one part of the list. At the low end of the ranking the order means little.

In this assay the target is GST-SBP-SLBP (stem-loop binding protein) (UniProt Q14493). The assay is described as follows: targeted RNA Bind-n-Seq.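 Further: DESeq read counts versus GST-SBP nonspecific binding control pulldown.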 The settings on record: RBNS binding buffer: 25 mM Tris pH 7.5, 150 mM KCl, 3 mM MgCl2, 0.1% Tween, 0.5 mg/mL BSA, 1 mM DTT; 27 nM protein, 750 pM RNA pool; temperature not stated; high values mean tight binding.
Consider “GGUCACGUCUCAAUCAACUCUUCCCCCAGGGAAAGCCCUGGUAAUCUCAACAGCUCGCAGUCAAG”, for which the binding signal (log2 fold change) worked out at 0.238.

In the case of “GGUCACGUCUCAAUCAACUCUACUCCAGGAGUUUACUCCUGCAAUCUCAACAGCUCGCAGUCAAG”, the binding signal (log2 fold change) was -0.047.

As for “GGUCACGUCUCAAUCAACUCAUUUUCAGGAGUUUCCUCCUGCUUUGUCAACAGCUCGCAGUCAAG”, the binding signal (log2 fold change) was found to be 0.0348.

For the sequence “GGUCACGUCUCAAUCAACUCAUCGUCAGGAGUUUACUCCUGCUUUCUCAACAGCUCGCAGUCAAG”, the binding signal (log2 fold change) is -0.0244.

As for “GGUCACGUCUCAAUCAACUCAUGUCCAGGAGUUUUCUCCUGUUUUCUCAACAGCUCGCAGUCAAG”, the binding signal (log2 fold change) was 0.0263.

On to “GGUCACGUCUCAAUCAACUCAUCCCCAGGAGUUUUCUCCUGUUUUUUCAACAGCUCGCAGUCAAG”, for which the binding signal (log2 fold change) is -0.105.

Regarding “GGUCACGUCUCAAUCAACUCAUUCCCCAGGGAAAACCCUGGUAAACUCAACAGCUCGCAGUCAAG”, the binding signal (log2 fold change) was found to be 0.156.

In the case of “GGUCACGUCUCAAUCAACUCUUUCCCAGGAGUUUCCUCCUGUAAAUUCAACAGCUCGCAGUCAAG”, the binding signal (log2 fold change) was -0.019.

Turning to “GGUCACGUCUCAAUCAACUCCUCCGAGGGGGGGAAAACCCCUUUACCCUCAAUUUCAACAGCUCGCAGUCAAG”, the binding signal (log2 fold change) was -0.59.

In the case of “GGUCACGUCUCAAUCAACUCAACUCCCAGGGAAAACCCUGGUAUUCUCAACAGCUCGCAGUCAAG”, the binding signal (log2 fold change) came to 0.205.

On to “GGUCACGUCUCAAUCAACUCAUCGCCCAGGGAAAACCCUGGUUAUUUCAACAGCUCGCAGUCAAG”, for which the binding signal (log2 fold change) is -0.0781.

In the case of “GGUCACGUCUCAAUCAACUCAUCUCCCAGGGAAAGCCCUGGCAAUUUCAACAGCUCGCAGUCAAG”, the binding signal (log2 fold change) was -0.338.

As to “GGUCACGUCUCAAUCAACUCAUUCUCCAGGGAAAACCCUGGCAUUUUCAACAGCUCGCAGUCAAG”, the binding signal (log2 fold change) was -0.0686.

With “GGUCACGUCUCAAUCAACUCCCUAGAGGGGGGGAAAACCCCUUUACCCUCGAUAUCAACAGCUCGCAGUCAAG”, the binding signal (log2 fold change) turned out to be 0.231.

Take “GGUCACGUCUCAAUCAACUCUAUUUCAGGAGUUUACUCCUGUAUUCUCAACAGCUCGCAGUCAAG”: the binding signal (log2 fold change) came to 0.0297.

As to “GGUCACGUCUCAAUCAACUCUUCUUCCAGGGAAAGCCCUGGCUAUCUCAACAGCUCGCAGUCAAG”, the binding signal (log2 fold change) was -0.14.

Consider “GGUCACGUCUCAAUCAACUCAACGCCAGGAGUUUACUCCUGUUUAUUCAACAGCUCGCAGUCAAG”, for which the binding signal (log2 fold change) is -0.0292.

As to “GGUCACGUCUCAAUCAACUCAAUCCCCAGGGAAACCCCUGGCUUACUCAACAGCUCGCAGUCAAG”, the binding signal (log2 fold change) was -0.337.

Regarding “GGUCACGUCUCAAUCAACUCUACUCCCAGGGAAAGCCCUGGCUAAUUCAACAGCUCGCAGUCAAG”, the binding signal (log2 fold change) is -0.0595.

“GGUCACGUCUCAAUCAACUCUAUCCCCAGGGAAAUCCCUGGCUAAUUCAACAGCUCGCAGUCAAG”: the binding signal (log2 fold change) is 0.107.

As to “GGUCACGUCUCAAUCAACUCCACAGAGGGGGGGAAAACCCCUUUACCCUCCAUCUCAACAGCUCGCAGUCAAG”, the binding signal (log2 fold change) is 0.416.

Regarding “GGUCACGUCUCAAUCAACUCAAUUCCAGGAGUUUUCUCCUGUAUAUUCAACAGCUCGCAGUCAAG”, the binding signal (log2 fold change) was determined as 0.181.

On to “GGUCACGUCUCAAUCAACUCCCUCGAGGGGGGGAAAACCCCUUUACCCUCAAACUCAACAGCUCGCAGUCAAG”, for which the binding signal (log2 fold change) turned out to be 0.251.

For “GGUCACGUCUCAAUCAACUCAUCGUCCAGGGAAAACCCUGGUAUAUUCAACAGCUCGCAGUCAAG”, the binding signal (log2 fold change) was 0.0336.

Take “GGUCACGUCUCAAUCAACUCUUCUCCCAGGGAAAACCCUGGCAUACUCAACAGCUCGCAGUCAAG”: the binding signal (log2 fold change) worked out at 0.0953.

Take “GGUCACGUCUCAAUCAACUCUUUCCCAGGAGUUUUCUCCUGCUAUUUCAACAGCUCGCAGUCAAG”: the binding signal (log2 fold change) was determined as 0.00719.

For the sequence “GGUCACGUCUCAAUCAACUCUUAAGAGGGGGGGAAAACCCCUUUGCCCUCACCAUCAACAGCUCGCAGUCAAG”, the binding signal (log2 fold change) is -0.06.

Regarding “GGUCACGUCUCAAUCAACUCAAUCCCCAGGGAAAACCCUGGCUUUUUCAACAGCUCGCAGUCAAG”, the binding signal (log2 fold change) was 0.263.

Consider “GGUCACGUCUCAAUCAACUCAACUCCAGGAGUUUUCUCCUGCAAAUUCAACAGCUCGCAGUCAAG”, for which the binding signal (log2 fold change) was -0.131.

As for “GGUCACGUCUCAAUCAACUCUUUCUCCAGGGAAACCCCUGGUAAUUUCAACAGCUCGCAGUCAAG”, the binding signal (log2 fold change) worked out at 0.052.

As for “GGUCACGUCUCAAUCAACUCAUCGUCAGGAGUUUACUCCUGUAUUCUCAACAGCUCGCAGUCAAG”, the binding signal (log2 fold change) is 0.0596.

Consider “GGUCACGUCUCAAUCAACUCAAUCCCCAGGGAAAGCCCUGGUUAAUUCAACAGCUCGCAGUCAAG”, for which the binding signal (log2 fold change) turned out to be 0.0698.

Regarding “GGUCACGUCUCAAUCAACUCUCUAGAGGGGGGGAAAACCCCUUUACCCUCGAAUUCAACAGCUCGCAGUCAAG”, the binding signal (log2 fold change) is -0.135.

In the case of “GGUCACGUCUCAAUCAACUCUUUCUCCAGGGAAAGCCCUGGCAAUGUCAACAGCUCGCAGUCAAG”, the binding signal (log2 fold change) is 0.225.

For the sequence “GGUCACGUCUCAAUCAACUCUCAAGAGGGGGGGAAAACCCCUUUGCCCUCCAAUUCAACAGCUCGCAGUCAAG”, the binding signal (log2 fold change) was -0.0399.

Regarding “GGUCACGUCUCAAUCAACUCUAAAGAGGGGGGGAAAACCCCUUUGCCCUCAACCUCAACAGCUCGCAGUCAAG”, the binding signal (log2 fold change) was 0.0452.

Consider “GGUCACGUCUCAAUCAACUCUUCUCCCAGGGAAACCCCUGGCAUACUCAACAGCUCGCAGUCAAG”, for which the binding signal (log2 fold change) was -0.173.

As to “GGUCACGUCUCAAUCAACUCACCCGAGGGGGGGAAAACCCCUUUACCCUCAUCAUCAACAGCUCGCAGUCAAG”, the binding signal (log2 fold change) was -0.157.

Turning to “GGUCACGUCUCAAUCAACUCACAAGAGGGGGGGAAAACCCCUUUGCCCUCAUUUUCAACAGCUCGCAGUCAAG”, the binding signal (log2 fold change) was -0.281.

Regarding “GGUCACGUCUCAAUCAACUCUUUCUCAGGAGUUUCCUCCUGCAUUUUCAACAGCUCGCAGUCAAG”, the binding signal (log2 fold change) came to 0.312.

For the sequence “GGUCACGUCUCAAUCAACUCUUUUUCCAGGGAAACCCCUGGUUAUGUCAACAGCUCGCAGUCAAG”, the binding signal (log2 fold change) is 0.143.

Take “GGUCACGUCUCAAUCAACUCAUUUCCAGGAGUUUACUCCUGCAUACUCAACAGCUCGCAGUCAAG”: the binding signal (log2 fold change) was 0.087.

For the sequence “GGUCACGUCUCAAUCAACUCAACUUCAGGAGUUUACUCCUGUAUUUUCAACAGCUCGCAGUCAAG”, the binding signal (log2 fold change) is -0.336.

For “GGUCACGUCUCAAUCAACUCUACUCCAGGAGUUUUCUCCUGUAUAUUCAACAGCUCGCAGUCAAG”, the binding signal (log2 fold change) was determined as 0.0154.

On to “GGUCACGUCUCAAUCAACUCUACUCCAGGAGUUUUCUCCUGCAUUUUCAACAGCUCGCAGUCAAG”, for which the binding signal (log2 fold change) is -0.0918.

For “GGUCACGUCUCAAUCAACUCAUUUUCAGGAGUUUCCUCCUGCUUACUCAACAGCUCGCAGUCAAG”, the binding signal (log2 fold change) is 0.0883.

With “GGUCACGUCUCAAUCAACUCAACUUCCAGGGAAAACCCUGGUUUACUCAACAGCUCGCAGUCAAG”, the binding signal (log2 fold change) was found to be 0.0378.
